The source of these data is ChEMBL document CHEMBL1201862, “PubChem BioAssay data set” (2004).

The structures appear in SMILES notation.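 Values below derive from 48-hour exposures of cells grown in 96-well plates, with endpoints linearly interpolated between the two concentrations bracketing the appropriate inhibition level. GI50 marks 50% less growth.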 The source made the active and inactive calls. Cut-off read from the data, not from the text of the source: active = GI50 up to about 1.1 µM and inactive = higher. A value given as a limit tells only on which side of the number the result lay.

This test deals with NCI-H322M. Description: NCI-60 cell line screen, 48 h.
Turning to `O=C(O)c1cc(-c2ccc3c(O)c(O)ccc3c2)ccc1O`, the GI50 is inactive: > 75 µM.

In the case of `CCOC(=O)C(NC(=O)c1ccccc1)(Nc1cc(C)on1)C(F)(F)F` (stereo unspecified), the GI50 was inactive: > 100 µM.

Take `N#C/C(=C\c1cc(O)c(O)c(O)c1)C(N)=O`: the GI50 is inactive: > 79.1 µM.

In the case of `O=C1NC(=S)N/C1=C\c1cccs1`, the GI50 was inactive: > 100 µM.

Regarding `CC(C)(C)SC1=CCC[C@@H](P(=O)(c2ccccc2)c2ccccc2)[C@@H]2CCC[C@@H]12`, the GI50 is inactive: 17.2 µM.

With `CC1=CC(=O)CC(C)(C)C1/C=C/C(C)=C/C=C/C(C)=C/C=C/C=C(C)/C=C/C=C(C)/C=C/C1C(C)=CC(=O)CC1(C)C` (stereo unspecified), the GI50 was inactive: > 100 µM.

As for `CN1CCN(CCSC2Cc3cc(Cl)ccc3Sc3ccccc32)CC1` (stereo unspecified), the GI50 was inactive: 11 µM.

Turning to `O=S(=O)(O)C(c1ccccc1)C(O)c1ccccc1` (stereo unspecified), the GI50 was inactive: > 100 µM.

Regarding `CC1(C)C2CCC(N)(C2)C1N` (stereo unspecified), the GI50 was inactive: > 100 µM.

For the compound `C/C=C\C1OC1(C)c1cc(=O)c2c(C)cc3c(c2o1)C(=O)c1c(O)c(C2CC(C)(N(C)C)C(OC(C)=O)C(C)O2)cc(C2CC(N(C)C)C(O)C(C)O2)c1C3=O` (stereo unspecified), the GI50 was active: 0.00629 µM.

With `CC12CCC(C(=O)n3c1nc1ccccc13)C(C)(C)O2` (stereo unspecified), the GI50 is inactive: > 100 µM.

`COc1cc(C2SC(C)C(=O)N2c2ccc(-c3csc(NS(=O)(=O)c4ccc(Cl)c(OC)c4)n3)cc2)ccc1O` (stereo unspecified): the GI50 is inactive: > 100 µM.

`C(=N\NC1=NCCCN1)/c1ccc(-c2cn3cc(/C=N/NC4=NCCCN4)ccc3n2)cc1`: the GI50 was inactive: > 100 µM.

On to `O=c1[nH]c(Br)nc2c(Br)c[nH]c12`, for which the GI50 was inactive: > 100 µM.

In the case of `Cc1ccc(NC(=O)/C(Cl)=C(/Cl)C(=O)O)cc1`, the GI50 is inactive: 41.7 µM.

On to `Cc1cc(Cl)ccc1NC(=O)CC1SC(N)=NC1=O` (stereo unspecified), for which the GI50 is inactive: > 100 µM.

Turning to `O=C(NCP(=O)(Oc1ccccc1)Oc1ccccc1)OCc1ccccc1`, the GI50 is inactive: 90.6 µM.

`COc1cc(C#CC(=O)OC/C=C/c2ccc3c(c2)OCO3)cc(OC)c1OC`: the GI50 is inactive: 30.6 µM.

For `C=O.NNCCc1n[nH]c(=O)n1N`, the GI50 was inactive: > 100 µM.

For the compound `CC(=O)Nc1ccc(/C=C/C(=O)c2sc(-n3nc(-c4ccccc4)cc3-c3ccccc3)nc2C)cc1`, the GI50 is inactive: > 100 µM.

With `O=C(c1ccccc1)c1ccc(N2C(=O)/C(=C/c3ccccc3S)N=C2c2ccccc2)c(N2C(=O)/C(=C/c3ccccc3S)N=C2c2ccccc2)c1`, the GI50 was inactive: > 100 µM.

For `CCOCc1nc2c(OC)c(-c3nc4ccc(N5CCN(C)CC5)cc4[nH]3)cc(OC)c2[nH]1`, the GI50 is inactive: 65.9 µM.

`Cc1sc(/N=C/c2c[nH]c3ccccc23)c(C#N)c1C`: the GI50 is inactive: 39 µM.

As to `CC(C)OC(=O)/C=C/C(=O)O/C=C/[N+](=O)[O-]`, the GI50 is inactive: > 100 µM.

As for `CC(=O)NNc1nc(C)c(C(/C=C/c2ccc(NC(C)=O)cc2)=N/NS(=O)(=O)c2ccc(C)cc2)s1`, the GI50 was inactive: > 100 µM.

Turning to `O=C1NC2=C(CCCCC/C2=N\O)C12CCCCCC2`, the GI50 is inactive: > 100 µM.

Regarding `CN(C)C(=S)/N=c1\ss/c(=N/c2ccccc2)n1C`, the GI50 was inactive: > 100 µM.

With `Cc1ccc(CCC(=O)C(=O)O)s1`, the GI50 is inactive: > 100 µM.

`CSc1nc(SC)c2c(CO)c(Br)n(Cc3ccccc3)c2n1`: the GI50 is inactive: 20.1 µM.

As to `O=C(c1ccccc1)c1ccc2[nH]c(-c3c(Cl)c(Cl)c(Cl)c(Cl)c3C(=O)N/N=C\C=C\c3ccccc3)nc2c1`, the GI50 is inactive: 85.3 µM.

Consider `C=CCNC1=C2C[C@@H](C)C[C@@H](OC)[C@H](OC(=O)CCN)[C@H](C)/C=C(\C)[C@@H](OC(N)=O)[C@H](OC)/C=C\C=C(/C)C(=O)NC(=CC1=O)C2=O`, for which the GI50 is inactive: 7.41 µM.

Take `COc1ccc(C(=O)N(C(=S)OCCOc2ccccc2)c2ccccc2)cc1`: the GI50 is inactive: 53.5 µM.

As to `C1CSCCSCCCS[C@@H]2CCCCC2SC1` (stereo partly specified), the GI50 is inactive: > 100 µM.

With `C=C1CCC2CC1[C@@H](C(=O)c1c[nH]c3ccccc13)NC2(C)C` (stereo partly specified), the GI50 is inactive: > 37.5 µM.

On to `CN(C)C(=S)/N=C1\SC(=N\c2ccccc2)/C(=N/c2ccccc2)N1c1ccc([N+](=O)[O-])cc1`, for which the GI50 was inactive: > 100 µM.

On to `O=C1/C(=C2/C(=O)N(c3ccccc3)c3ccccc32)Nc2ccccc21`, for which the GI50 was inactive: 45 µM.

As to `CN1CCC(C(=O)NNc2ccccc2)CC1`, the GI50 is inactive: > 52 µM.

`C=C1C(C2(C)C(OC(C)=O)CC(=O)OC(C)(COC(C)=O)C2CC(=O)OC)C(OC=O)C(OC(=O)C(O)C(C)CC)C2(C)C(c3ccoc3)CC(=O)C12O` (stereo unspecified): the GI50 is inactive: 9.53 µM.

In the case of `CC1=NN(c2nc(N)nc(C/C(N)=N/O)n2)C(C)(C)C1`, the GI50 was inactive: > 100 µM.

In the case of `CC1=C(C(=O)Nc2cc(=O)n(C)c(=O)n2C)C(c2cccc([N+](=O)[O-])c2)C(C(=O)Nc2cc(=O)n(C)c(=O)n2C)=C(C)N1`, the GI50 was inactive: > 100 µM.

For the compound `Cc1ccc(S(=O)(=O)N/N=C2/CC[C@H](C(C)(C)C)C[C@@H]2C)cc1`, the GI50 was inactive: 17.7 µM.

In the case of `Cc1c(F)c(NC(=O)CN(C)C)c2c(=O)cc(-c3ccc(NC(=O)CN(C)C)c(F)c3)oc2c1F`, the GI50 was inactive: 16.1 µM.

For `CCOP(=O)(OCC)/C(=C/NC(=S)c1ccncc1)C(=O)OC`, the GI50 is inactive: > 100 µM.

Take `O=C(c1ccccc1)c1cc[n+](C2=C([N-]S(=O)(=O)c3ccccc3)C(=O)c3ccccc3C2=O)cc1`: the GI50 is inactive: 15.7 µM.

With `COc1cccc2c(=O)c3c(O)c4cc(N(C)C)ccc4c(OC(C)=O)c3oc12`, the GI50 is inactive: 26.4 µM.

For the compound `COC(=O)c1c(O)ccc2c1c1c(n2CCc2ccccc2)C(=O)c2ccccc2C1`, the GI50 was inactive: 33.2 µM.

`COc1ccc2c(c1O)[C@@]13C=C(O)C(=O)C=C1[C@@H](C2)N(C)CC3`: the GI50 was inactive: 69.3 µM.

Turning to `Cc1ccc2c(c1)C(C(=O)N[C@@H]1C(=O)N3[C@@H]1SC(C)(C)[C@@H]3C(=O)O)OCCC2` (stereo partly specified), the GI50 is inactive: > 100 µM.

As to `COC1=CC(=O)C2C(C1=O)C(c1ccc(Cl)cc1)[C@@H]2C` (stereo partly specified), the GI50 is inactive: 36.1 µM.

With `Oc1[nH]c(NCc2ccc(Cl)cc2)nc2ncnc1-2`, the GI50 is inactive: > 100 µM.

Turning to `Cc1ccc(-n2c3nc(=O)n(C)c(=O)c-3nc3ccccc32)c(C)c1`, the GI50 is inactive: 10.8 µM.

Turning to `COc1ccc(/C=C/C(=O)/C=C/c2ccc(OC)cc2OC)c(OC)c1`, the GI50 was inactive: 24.2 µM.

Turning to `COc1ccc(OC)c(CC(=O)c2ccc(O)c(C(=O)NCCc3ccc(F)cc3)c2)c1`, the GI50 was inactive: 3.33 µM.

For the compound `COc1ccc(-c2cc(=O)c3c(O)c(OC)c(O)c(OC)c3o2)cc1OC`, the GI50 is inactive: > 100 µM.

As for `N=C(N)N/N=C/c1c(-c2ccc(Cl)cc2)nc2n1CCS2`, the GI50 is inactive: 14.2 µM.

In the case of `CCCN(CCC)C(=O)Cc1c2n(c3ccccc13)Cc1ccccc1-2`, the GI50 is inactive: 68.5 µM.
